Data on 109 molecules can be found in PubChem BioAssay AID1240 (Sanford-Burnham Center for Chemical Genomics, 2008).

Each structure is given as a SMILES string. In all, about 50,000 compounds went through this assay and about 800 (1.6%) showed an effect of 50% or more. The list shows a part of the results.

This assay deals with Bcl-2-like protein 10 (Homo sapiens) (UniProt Q9HD36). In words: Phenotype converters, Bcl-B/TR3 peptide binding displacement, primary biochemical FP (AID 1240).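 Further: 0% = Bcl-B with tracer peptide and DMSO and 100% = tracer peptide lacking Bcl-B.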 The settings on record: GST-Bcl-B / FITC-TR3 peptide fluorescence polarization; stronger effect = higher value; compound at 3.75 mg/L.
Sequence of UniProt Q9HD36 (Q9HD36 whole entry, looked up): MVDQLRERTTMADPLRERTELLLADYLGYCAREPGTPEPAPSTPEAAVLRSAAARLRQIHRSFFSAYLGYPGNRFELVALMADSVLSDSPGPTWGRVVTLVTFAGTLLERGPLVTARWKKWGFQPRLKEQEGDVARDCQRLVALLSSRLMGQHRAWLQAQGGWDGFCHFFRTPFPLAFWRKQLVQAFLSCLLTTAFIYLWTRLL
As to `CC(=O)Nc1ccc(Nc2ccc(C(F)(F)F)cc2[N+](=O)[O-])cc1`, the displacement came out at 2.8%. For `N#CC1=C(N)SC(N)=C(C#N)C1C1CC=CCC1` (centres undefined) the value was -18.6%; for `COc1ccc(CN=Cc2c(O)n(-c3ccc(Cl)cc3)c(=O)[nH]c2=O)cc1`, -6.6%. For `Cc1nn(-c2ccccc2)c(C)c1S(=O)(=O)O` the value was -3.3%. For `Cc1ccc2nsnc2c1NC(=O)Cc1ccccc1` the value was -4.4%.

Turning to `CC(C)(C)c1ccc(OCCNC(=O)/C=C/c2ccccc2)cc1`, the displacement is 5.4%. For `COc1ccccc1N(CC(=O)N1CCOCC1)S(=O)(=O)c1ccccc1` the value was 4.4%; for `Cc1cc(C)c(C)c(OCCCCCN2CCCC2)c1`, 7.4%. For `CC(C)c1ccc(/C=C2/SC(=S)N(c3cccc(Cl)c3)C2=O)cc1` the value was -1%; for `CCOc1ccc(CN2CCN(Cc3cc(Br)ccc3O)CC2)cc1`, -2.7%; for `COC(=O)C(C)N(c1ccc(OC)cc1)S(C)(=O)=O` (centres undefined), -10.7%. In the case of `CCOc1cccc2sc(NC(=O)C(C)C)nc12`, the displacement is -2.8%.

Turning to `Cc1cc(C)cc(NC(=O)Cc2ccc([N+](=O)[O-])cc2)c1`, the displacement is -9.7%. For `O=C(O)CCCCCN1C(=O)C(O)=C(C(=O)/C=C/c2ccccc2)C1c1cccc(F)c1` (centres undefined) the value was -0.1%; for `Cc1ccc(N2C(=O)/C(=C3/C(=O)N(C)c4ccccc43)SC2=S)cc1C`, 2%.

For the molecule `Cc1ccc(S(=O)(=O)CCc2nc3ccccc3[nH]2)cc1`, the displacement was -1.9%.

In the case of `O=S(=O)(O)c1cccc2c(N=Cc3cc(Cl)cc(Cl)c3O)cccc12`, the displacement turned out to be 6.8%.

As to `Cn1c2ccccc2c2nnc(SCc3ccccc3)nc21`, the displacement came to 9.9%. In the case of `CC(C)CNC(=O)C(=O)Nc1c(O)c2ccccc2[nH]c1=O`, the displacement came out at 5.2%.

`CC(Oc1ccc(Cl)cc1Cl)C(=O)N1CCN(c2ccc(Cl)cc2)CC1` (centres undefined): the displacement turned out to be 3.1%. For `CC(/C=N/Nc1nnc2c(n1)[nH]c1ccccc12)=C\c1ccco1` the value was 7%; for `O=C(c1ccccc1F)N1CCCc2ccccc21`, -2.9%. For `Cc1ccc(CCSc2c(Cl)cccc2Cl)cn1` the value was 9.2%. Regarding `COc1cc(/C=N/Nc2cc(N3CCCCC3)nc(N3CCCCC3)n2)ccc1O`, the displacement turned out to be 4%. For `CC1CCN(Cc2c(O)ccc3c(=O)c(-c4ccc(Cl)cc4)coc23)CC1` the value was -17.7%; for `Cc1ccc(Br)cc1S(=O)(=O)N1CCC(C)CC1`, -2.6%; for `Cc1sc2nc(SC/C=C/c3ccccc3)[nH]c(=O)c2c1C`, -1.7%.

For the molecule `Cc1cc(C)c(NC(=O)CC#N)c(C)c1`, the displacement was determined as 5.7%. For `COc1ccc(Br)cc1/C=N/NC(=O)C(C)Sc1nc(C)cc(C)n1` (centres undefined) the value was 8%; for `O=C(CCN1C(=O)c2cccc3cccc(c23)C1=O)OCCCc1ccncc1`, 26.5%. For `CCOC(=O)c1c(NC(=O)c2ccc(OC)cc2)sc(C(C)=O)c1C` the value was 0.7%. For `Cc1onc(-c2ccccc2)c1C(=O)NCCC(c1ccccc1)c1ccccc1` the value was -3.3%; for `Cc1ccc(NC(=S)NC(=O)c2ccco2)c(C)c1`, 9.5%. Take `COc1cccc(C(=O)N2CCN(C3CCCC3)CC2)c1`: the displacement was -8.4%. For `NC(=O)c1cc(-c2ccccc2)sc1N`, the displacement is -12%. For `CCCCOc1ccc(C(=O)Nc2ccc(Cl)cn2)cc1` the value was 12%; for `CCOC(=O)c1ccccc1N1C(=O)C2C3C=CC(C3)C2C1=O` (centres undefined), 47.2%; for `O=C(CN(c1ccc(F)cc1)S(=O)(=O)c1ccccc1)NCc1ccc(Cl)cc1`, 12.4%. For `O=C(Nc1cccc([N+](=O)[O-])c1)c1cc(S(=O)(=O)Nc2ccc(F)cc2)ccc1Cl`, the displacement is 6.4%. For `O=c1[nH]c(N2CCCCC2)nc2ncn(Cc3ccccc3)c12` the value was 1.6%; for `CCOC(=O)c1c(NC(=S)NC(=O)c2ccccc2)sc2c1CC(C(C)C)OC2` (centres undefined), -7%. For `COC(=O)c1cccc(-c2ccc(/C=C3/C(=O)NN(c4cccc(Cl)c4)C3=O)o2)c1`, the displacement worked out at 11.5%. For `CC(C)COc1ccc(C(=O)Nc2ccc(N3CCOCC3)cc2)cc1` the value was 9.7%; for `Nc1ccc(-c2nnc(-c3ccncc3)o2)cc1`, 21%; for `Cc1ccc(C(=O)Nc2cccc(C(=O)O)c2)cc1S(=O)(=O)N1CCCCC1`, -15.6%. For `COC(=O)/C(=C(/C)c1ccccc1)[N+](=O)[O-]` the value was -5.9%. On to `O=C(Oc1ccc(S(=O)(=O)c2ccc(OC(=O)c3ccncc3)cc2)cc1)c1ccncc1`, for which the displacement was 11%.

Turning to `CCOC(=O)c1c(-c2ccc(Cl)cc2)csc1NC(=O)COc1ccc(F)cc1`, the displacement came to 9.8%. Regarding `O=C(Nc1ccncc1)c1ccc([N+](=O)[O-])cc1`, the displacement was found to be 19.5%. For `O=C1C=C(c2cccs2)CC(c2ccccc2)C1n1nnc([N+](=O)[O-])n1` (centres undefined) the value was -4.9%; for `Cc1cc(NC(=O)c2ccc(C)c([N+](=O)[O-])c2)ccc1Br`, 10.7%.

Take `NNc1nc2sc3c(c2c(=O)n1Cc1ccccc1)CCCC3`: the displacement is -2.8%. `CC(=O)Oc1cc2ccccc2cc1-c1nc2n(n1)C(=O)CCS2`: the displacement was 11.7%.

Consider `CCOC(=O)c1ccc(-n2c(C)cc(/C=C3\SC(=S)NC3=O)c2C)cc1`, for which the displacement amounted to 20.1%. Turning to `CCOC(=O)C1=C(C)OC(N)=C(C#N)C1c1c(C)c(C)cc(C)c1C` (centres undefined), the displacement is 12.4%.

In the case of `O=[N+]([O-])c1cc(C(F)(F)F)ccc1N1CCN(C/C=C/c2ccccc2)CC1`, the displacement was -6.4%. For `COc1ccc(CNC(=O)c2c(-c3c(Cl)cccc3Cl)noc2C)cc1`, the displacement was 0.9%.

Turning to `CCOc1cc(/C=C2/C(=O)NN(c3ccc(Br)cc3)C2=O)ccc1O`, the displacement is -4.9%. For `COc1ccc(C2CC(C(F)(F)F)n3nc(C(=O)NCc4cccs4)c(Cl)c3N2)cc1OC` (centres undefined) the value was 1.1%. For `O=C(c1cccs1)N1CCN(Cc2cccc(F)c2)CC1` the value was 7%; for `Cc1cccc(NC(=O)C(=O)N/N=C/c2ccc(C)o2)c1`, -14.6%. For `CCc1ccc(NCCC(=O)c2ccc([N+](=O)[O-])cc2)cc1` the value was -4.2%; for `CNc1ccc([N+](=O)[O-])cc1-n1cnc(-c2ccc([N+](=O)[O-])cc2)c1`, -4.4%; for `CCc1ccc(C2Nc3ccccc3NC3=C2C(=O)CC(c2ccc(OC)cc2)C3)s1` (centres undefined), 6%.

In the case of `COc1cc(OC)c(CNc2ccc(C)c(C)c2)cc1Br`, the displacement came to 11.5%. For `Fc1ccc(Cc2cnc(Nc3ccccc3)s2)cc1` the value was -12.5%. Turning to `O=C(Nc1ccc(Nc2ccccc2)c2c1C(=O)c1ccccc1C2=O)c1ccccc1`, the displacement was 11.4%. For `Cc1cc2c(cc1C)NC(c1coc3ccccc3c1=O)C1=C(CC(C)(C)CC1=O)N2` (centres undefined) the value was -3.7%. For `CS(=O)(=O)N1CCN(C2CCC(c3ccccc3)CC2)CC1` (centres undefined), the displacement came to 9.5%. For `Cc1cccc(C(=O)N2CCC(C(N)=O)CC2)c1` the value was 13.5%; for `O=C(c1ccncc1)N1CCN(Cc2ccccc2)CC1`, -7.8%. For `C=CCn1c(SCC(=O)N2CCCCC2)nc2sc(C)c(C)c2c1=O` the value was -8.7%; for `Cc1ccc(C)c(N(CC(=O)NC2CCCCC2)S(=O)(=O)c2ccccc2)c1`, -7.8%; for `COc1cc(C(=O)c2cc(Br)ccc2NC(=O)C(OC)c2ccccc2)cc(OC)c1OC` (centres undefined), 10.3%.

As to `CC(Nc1nc(-c2ccccc2O)nc2ccccc12)c1ccccc1` (centres undefined), the displacement was -6.5%. Consider `CCC1CCc2c(sc(NC(=O)c3c(-c4ccccc4)noc3C)c2C(N)=O)C1` (centres undefined), for which the displacement was -9%. Take `Cc1cc(Cl)ccc1OCCCC(=O)NO`: the displacement was found to be 4.6%. In the case of `Cc1cc(N2C(=O)NC(=O)/C(=C\C=C\c3ccco3)C2=O)ccc1Br`, the displacement was -3.7%. On to `COc1cc(C2Nc3cc(C)c(C)cc3NC3=C2C(=O)CC(C)(C)C3)c(OC)cc1Br` (centres undefined), for which the displacement is -1.8%. Turning to `O=[N+]([O-])c1ccc(C2CC(c3ccc(Cl)cc3)=Nc3ccccc3N2)cc1` (centres undefined), the displacement came to 1%.

Take `O=c1[nH]c(=O)n(-c2ccccc2Cl)c(O)c1C=NCCCn1ccnc1`: the displacement was determined as 11.5%. As for `O=C(NCCN1CCOCC1)c1ccc(Cl)cc1`, the displacement is 2.1%. With `CC(=O)c1cccc(NC(=O)c2nn3c(C(F)(F)F)cc(-c4cccs4)nc3c2Cl)c1`, the displacement worked out at 13.4%.

For the molecule `Cc1ccc(Cl)c(OCCCN2CCCCC2)c1`, the displacement was -6.7%. For the molecule `O=C(Nc1ccccc1-c1ccccc1)c1ccc(Br)cc1`, the displacement is -6.5%.

`CCOc1cc(/C=C2\SC(N3CCC(C)CC3)=NC2=O)ccc1O`: the displacement was -26.2%.

Turning to `Cc1ccc(OC(=O)c2ccc(Br)o2)cc1`, the displacement is -13.2%.

For the molecule `CC1=C(C(=O)OC(C)C)C(c2ccc(OCC(N)=O)cc2)NC(=O)N1` (centres undefined), the displacement is 10.3%.

Turning to `CCOC(=O)c1c(-c2ccc(OC)c(OC)c2)csc1N`, the displacement was 15.1%. As for `COc1ccc(-c2cc(C(=O)Nc3ccccc3F)c3ccccc3n2)c(OC)c1`, the displacement stood at 82.3%. For `Cc1ccc2[nH]c(C)c(CC(=O)N/N=C/c3cccnc3)c2c1` the value was 4.9%.

With `O=C(CCC(=O)Nc1ccc(I)cc1)N/N=C/C=C/c1ccccc1`, the displacement is 11.1%. Take `Cc1cc(C)c2[nH]c(O)c(N=NC(=O)/C(=C\c3ccc([N+](=O)[O-])cc3)NC(=O)c3ccccc3)c2c1`: the displacement turned out to be 7.2%. Consider `O=C(O)c1cccc(NC(=O)c2cc3cc([N+](=O)[O-])ccc3oc2=O)c1`, for which the displacement is -0.3%. Take `Cc1c(NC(=S)NCc2ccco2)c(=O)n(-c2ccccc2)n1C`: the displacement came to 0.5%.

In the case of `CC1=C(C#N)c2nc(N)c(C#N)c(C)c2/C1=C/c1cc(Cl)cc(Cl)c1Cl`, the displacement worked out at 6.3%. For `O=C(/C=C/c1ccc(Cl)cc1)Nc1ccc(NC(=O)c2ccccc2)cc1` the value was 1.2%; for `COc1ccc(NCN2C(=O)S/C(=C/c3ccc(F)cc3)C2=O)cc1Cl`, -11.3%.

With `O=C(NC(CS)C(=O)O)c1cncc(O)c1` (centres undefined), the displacement amounted to 11%. For `COc1cc(/C=C/c2cc(C(F)(F)F)[nH]c(=O)n2)ccc1O` the value was 44.6%. For `O=C(Nc1nccs1)c1cccc(NC(=O)c2cccs2)c1` the value was 13.1%; for `C=CCOc1ccc(/C=C2\C(=O)N(C)C(C)=C2C(=O)OC)cc1OC`, 8.8%; for `Cc1ccc(OCC(=O)NCc2ccncc2)c(Br)c1`, -3.1%.

As to `COc1ccc(CN=Cc2c(O)n(-c3ccc(OC)cc3)c(=O)[nH]c2=O)cc1`, the displacement is -3.4%. On to `CC(=O)N1c2ccccc2NC2=C(C(=O)CC(C)(C)C2)C1c1c(F)cccc1Cl` (centres undefined), for which the displacement was found to be 4.9%. For `CN1CCN(C(=S)SCCN2CCCC2=O)CC1` the value was -5.4%; for `COc1ccc(C(=O)NC(=S)Nc2ccc(S(=O)(=O)N=C(N)N)cc2)cc1`, 9%.

As for `Cc1ccc(C)c(S(=O)(=O)Nc2ccc3oc4c(c3c2)C(=O)CCC4)c1`, the displacement worked out at 9.8%. Regarding `CCOc1ccc(C(=O)Nc2ccc(-c3nc4ccccc4s3)c(O)c2)cc1Cl`, the displacement is 3.9%.
